The whole screen tested about 110,000 compounds, of which about 40 (0.04%) were called active. This list was built around the results that the source calls inconclusive (neither active nor inactive); the mix of calls is not that of the screen. The call rests on the fitted dose curve; in most records, active means well fitted curve in the direction sought with a large enough effect in the signal ratio (not every such curve was filed as active); inconclusive means small, poorly fitted or top-dose-only effect, or a change in a side signal; inactive means flat fitted curve, though single readings scatter; the % refers to the signal ratio. Where the call is inconclusive, the potency comes from a doubtful curve fit.
Test: IkB Signaling;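 on IkBa stabilization activation: 0% = basal untreated cells and 100% = reference inhibitor full response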
Details: ABC-DLBCL IkBa-CBG/CBR dual luciferase ratio (green luciferase fused to IkBa over red control in OCI-Ly3 lymphoma cells), 4 h; IkBa stabilization activation: at 57.1 µM (top of the series), scaled: untreated 0%, proteasome inhibitor 100% unless noted
Procedure, shortened: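 Luminescence ratio of IκBα-fused green versus native red beetle luciferase in OCI-Ly3 cells, 4 h post-doxycycline with compound; red signal alone, scaled from basal (0%) to zero light (-100%), flagged nonspecific or cytotoxic effects.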
For O=C(CCc1ccccc1)Nc1ccc(N2CCOCC2)cc1, the IkBa stabilization activation was “inactive”. For COc1ccc(OC)c(NC2=NC3(CCCC3)N=C(N)N2)c1, the IkBa stabilization activation was “inactive”. For COc1ccc(CCNC(=O)c2ccc3c(c2)sc2nc(-c4ccc(C)cc4)cn23)cc1OC, the IkBa stabilization activation was inconclusive: -0.506% [signal inhibitor]. With COC(=O)c1ccc(COC(=O)c2[nH]c(C)c(C(C)=O)c2C)o1 the IkBa stabilization activation was inconclusive: 1.27% [signal inhibitor]. For CC(=O)Nc1cccc(NC(=O)c2cc3ccccc3o2)c1, the Potency was inconclusive: 25.1 µM [signal inhibitor, partial curve]. For Cc1ccc(NC(=O)C2CCN(S(=O)(=O)c3ccc4c(c3)CCCC(=O)N4)CC2)c(Cl)c1, the IkBa stabilization activation was inconclusive: 1.01% [signal inhibitor]. In the case of O=C(NC1(C(F)(F)F)C(=O)Nc2c1c(=O)[nH]c(=O)n2CCc1ccccc1)c1ccc(Cl)cc1 (configuration not stated), the IkBa stabilization activation is reported as inconclusive: 0.422% [signal activator]. In the case of Cc1ccc(-c2nn(C)c(=O)c3ccccc23)cc1S(=O)(=O)NCCO, the IkBa stabilization activation is reported as “inactive”. For Cc1cc(C)cc(NC(=O)CSc2oc(-c3ccco3)nc2S(=O)(=O)c2ccccc2)c1, the IkBa stabilization activation was inconclusive: -0.56% [signal inhibitor]. In the case of Cc1cccc(N2CCN(C(=O)c3ccc4c(c3)c(C)c(C)n4C)CC2)c1C, the IkBa stabilization activation is reported as inconclusive: 5.99% [signal inhibitor]. With Cc1ccc(Cl)cc1NC(=O)CCCn1c(=O)c2cccn2c2ccccc21 the IkBa stabilization activation was inconclusive: 11.4% [signal inhibitor]. For Cc1ccc(CN2CCSc3ccc(C(=O)Nc4cc(C)cc(C)c4)cc32)cc1, the IkBa stabilization activation was inconclusive: 6.8% [signal inhibitor]. For CN1CCN(S(=O)(=O)c2ccc(NC(=O)c3csc4ccccc34)cc2)CC1, the IkBa stabilization activation was inconclusive: 4.1% [signal inhibitor]. In the case of Cc1ccc(CCNC(=O)CCCn2c(=O)c3ccccc3n(CC(=O)Nc3cc(Cl)ccc3C)c2=O)cc1, the IkBa stabilization activation is reported as “inactive”. In the case of Cc1noc(C)c1CSc1nc2[nH]ncc2c(=O)n1-c1ccccc1, the IkBa stabilization activation is reported as “inactive”. For COc1cc2ncnc(Nc3cccc(Cl)c3)c2cc1OC, the IkBa stabilization activation was “inactive”. With Cc1ccc(N2CC(c3nc4ccccc4[nH]3)CC2=O)c(C)c1 (configuration not stated) the IkBa stabilization activation was “inactive”. In the case of COc1ccccc1NC(=O)N(Cc1ccco1)Cc1cc2cccc(C)c2[nH]c1=O, the IkBa stabilization activation is reported as inconclusive: 10.7% [signal inhibitor]. For COCCn1c(C)cc(O)c(C(c2ccccc2)N2CCN(CCO)CC2)c1=O (configuration not stated), the IkBa stabilization activation was inconclusive: -0.576% [signal inhibitor]. For C=CCc1c(C)nc2nc(SCC(=O)Nc3cccc(Cl)c3)nn2c1C, the IkBa stabilization activation was inconclusive: 7.23% [signal inhibitor]. With COCCn1nnnc1C(c1ccc(OC)cc1OC)N1CCN(c2ccccc2)CC1 (configuration not stated) the IkBa stabilization activation was “inactive”. For N[C@H](CCC(=O)N[C@H](CSN=O)C(=O)NCC(=O)O)C(=O)O, the Potency was inconclusive: 15.8 µM [signal inhibitor, partial curve]. For CCOC(=O)Cn1c(=O)oc2cc(S(=O)(=O)N3CCCc4ccccc43)ccc21, the IkBa stabilization activation was “inactive”. With Cc1nc2ccc(S(=O)(=O)N(C)CC(=O)N3CCc4ccccc4C3)cc2s1 the IkBa stabilization activation was inconclusive: 1.49% [signal inhibitor]. With Cc1cccc(-n2nnc(C(=O)N3CCc4ccccc4C3)c2N)c1 the IkBa stabilization activation was inconclusive: 4.51% [signal inhibitor]. With CC(C)CN(CC(C)C)c1nc(-c2ccc(Cl)cc2)nc2ccccc12 the IkBa stabilization activation was inconclusive: 16.2% [signal inhibitor]. For Cc1c(Cl)cccc1NC(=O)c1ccc2c(c1)nnn2C1CCCC1, the IkBa stabilization activation was “inactive”. For CCOC(=O)c1c(C)oc2nc(C)nc(N(CC(C)C)CC(C)C)c12, the IkBa stabilization activation was inconclusive: 3.77% [signal inhibitor]. In the case of O=C(CCS(=O)(=O)c1ccccc1)N(Cc1cccnc1)c1nc2c(Cl)cccc2s1, the IkBa stabilization activation is reported as inconclusive: 14.3% [signal inhibitor]. For CCc1ccc(NC(=O)c2ccc3c(=O)n4nc(Nc5ccccc5C)sc4nc3c2)cc1, the IkBa stabilization activation was inconclusive: -2.21% [signal inhibitor]. For O=C(O)c1ccccc1NS(=O)(=O)c1ccc2c3c(cccc13)C(=O)N2, the IkBa stabilization activation was inconclusive: 2.71% [signal inhibitor]. In the case of CNCC[C@H](Oc1ccccc1C)c1ccccc1, the IkBa stabilization activation is reported as “inactive”. With O=C(c1ccc(Cn2c(=O)[nH]c3ccccc3c2=O)cc1)N1CCN(c2ccc(F)cc2)CC1 the IkBa stabilization activation was inconclusive: 3.98% [signal inhibitor]. For COc1ccc(-c2noc(N(C)CC(=O)Nc3cccc(C(F)(F)F)c3)n2)cc1, the IkBa stabilization activation was inconclusive: 6.05% [signal inhibitor]. For COc1cccc(C2CC(c3ccccc3C)n3nc(N)nc3N2)c1 (configuration not stated), the IkBa stabilization activation was “inactive”. With Cc1ccc(NC(=O)c2cc(NC(=O)c3ccco3)ccc2N2CCCCC2)cc1 the Potency was inconclusive: 0.158 µM [signal inhibitor, full curve]. For O=C(O)/C=C\C(=O)Nc1ccc2c(c1)-c1ccccc1C2, the IkBa stabilization activation was inactive: -0.44% [at 11.4 µM, scaled: untreated 0%, proteasome inhibitor 100%]. With CCc1cccc(NC(=O)c2cc3c(=O)[nH]c4ccccc4c3n2C)c1 the IkBa stabilization activation was “inactive”. For COc1ccc(CN(C)S(=O)(=O)c2nnc(NC(=O)C(C)C)s2)cc1OC, the IkBa stabilization activation was “inactive”. With COc1ccccc1NC(=O)C1=C(C)Nc2nc(SCc3ccccc3F)nn2C1c1cccnc1 (configuration not stated) the IkBa stabilization activation was “inactive”. With Clc1c(CSc2nc3ccccc3o2)nc2sccn12 the IkBa stabilization activation was “inactive”. In the case of COc1cc(-c2c(C#N)c(N)nc3c2c(C)nn3-c2ccc(C)c(C)c2)cc(OC)c1OC, the IkBa stabilization activation is reported as “inactive”. For COc1ccccc1CNS(=O)(=O)c1ccc(-c2cc(C(F)(F)F)on2)s1, the IkBa stabilization activation was inconclusive: 7.89% [signal inhibitor]. In the case of COCCn1c(=O)c(-c2ccccc2)nc2cnc(N(C)C)nc21, the IkBa stabilization activation is reported as inactive: -2.04% [at 11.4 µM, scaled: untreated 0%, proteasome inhibitor 100%]. With O=C(Nc1cccnc1)c1cnn2c(C(F)F)cc(C3CC3)nc12 the IkBa stabilization activation was “inactive”. With CN=c1scc(C)n1/N=C/c1ccc(O)cc1 the IkBa stabilization activation was “inactive”. With COc1ccc(C2=C(C(C)=O)Sc3nnc(-c4ccc(C)cc4)n3N2C(C)=O)cc1OC the IkBa stabilization activation was inconclusive: 4.3% [signal inhibitor]. With O=C1NCCCC2c3c(cc(Br)c(O)c3Br)OC12N1CCOCC1 (configuration not stated) the IkBa stabilization activation was “inactive”. With COc1ccc(OC)c(C2c3c(-c4ccc(Br)cc4)n[nH]c3C(=O)N2c2ccc(Cl)cc2)c1 (configuration not stated) the IkBa stabilization activation was inconclusive: -0.0895% [signal inhibitor]. For CCN1CCN(c2ncc3c(n2)CC(c2cc(OC)c(OC)c(OC)c2)CC3=O)CC1 (configuration not stated), the IkBa stabilization activation was “inactive”. With COc1ccc(-n2c(=O)c(-c3cc(F)cc(F)c3)nc3cnc(N4CCNCC4)nc32)cc1 the IkBa stabilization activation was inactive: -0.234% [at 11.4 µM, scaled: untreated 0%, proteasome inhibitor 100%]. With CCOC(=O)c1c(Nc2cccc(C(=O)OC)c2)nnc(-c2ccccc2)c1-c1ccccc1 the IkBa stabilization activation was inconclusive: 8.27% [signal inhibitor]. In the case of O=C(Cc1ccccc1)N1CCC(c2nc(-c3ccc(F)cc3)no2)CC1, the IkBa stabilization activation is reported as inconclusive: 8.02% [signal inhibitor]. In the case of Cc1ccc(NC2c3ncccc3C(=O)N2C2CCCCC2)cc1C (configuration not stated), the IkBa stabilization activation is reported as inconclusive: 11.6% [signal inhibitor]. For CCOc1ccccc1-c1noc(CSc2nnc(-c3ccccc3)n2-c2cccc(C)c2)n1, the IkBa stabilization activation was inconclusive: -0.835% [signal inhibitor]. In the case of CN1CCc2c(sc3c2C(=O)NC(c2ccccn2)N3)C1 (configuration not stated), the IkBa stabilization activation is reported as “inactive”. In the case of c1ccc(CC2CCN(Cc3nc(-c4ccccc4)no3)CC2)cc1, the IkBa stabilization activation is reported as inconclusive: 2.15% [signal inhibitor]. For COc1ccccc1C(=O)Nc1ccc(NC(=O)c2cccs2)cc1, the IkBa stabilization activation was inconclusive: 6.97% [signal inhibitor]. With COc1ccc(Nc2cc(C(=O)NCCCN(C)Cc3ccccc3)c3ccccc3n2)c(OC)c1 the IkBa stabilization activation was inconclusive: -0.667% [signal inhibitor]. For CCOC(=O)c1cnc2c(cnn2CC)c1NN=C(C)C, the IkBa stabilization activation was “inactive”. In the case of COc1ccccc1NC(=O)N1CCN(c2nnc(C)c3c(C)n(-c4ccc(Cl)cc4)nc23)CC1, the IkBa stabilization activation is reported as “inactive”. In the case of COc1cc(-c2nc3ccccn3c2Nc2ccccc2C)ccc1O, the IkBa stabilization activation is reported as inconclusive: 12.7% [signal inhibitor]. With CCc1ccc(CN2C(=O)c3ccccc3C2C(=O)NC2CCCCCC2)cc1 (configuration not stated) the IkBa stabilization activation was inconclusive: 3.85% [signal inhibitor]. In the case of CC(C)(C)C(=O)Nc1ccc(-c2nc3ccccc3s2)cc1, the IkBa stabilization activation is reported as “inactive”. In the case of Cc1nc2ccc(Br)cn2c(=O)c1Cl, the IkBa stabilization activation is reported as “inactive”. With COc1ccccc1OCc1nc2ccccc2[nH]1 the Potency was inconclusive: 25.1 µM [signal inhibitor, partial curve]. With N[C@@H](Cc1c[nH]c2ccc([N+](=O)[O-])cc12)C(=O)O the IkBa stabilization activation was inactive: -0.33% [at 11.4 µM, scaled: untreated 0%, proteasome inhibitor 100%]. In the case of CC(C)C(c1nnnn1Cc1ccco1)N1CCN(C2CCCC2)CC1 (configuration not stated), the IkBa stabilization activation is reported as “inactive”. In the case of COCCn1c(=O)c(C)nc2cncnc21, the IkBa stabilization activation is reported as inactive: 2.02% [at 11.4 µM, scaled: untreated 0%, proteasome inhibitor 100%]. In the case of CCc1ccccc1Nc1nn2c(=O)c3ccc(C(=O)NC4CCC(C)CC4)cc3nc2s1 (configuration not stated), the IkBa stabilization activation is reported as inconclusive: -3.05% [signal inhibitor]. In the case of CCOc1cc(C(=O)N(Cc2nc(-c3ccc(C)cc3)no2)C(C)C)cc(OCC)c1OCC, the IkBa stabilization activation is reported as inconclusive: 2.15% [signal inhibitor]. With CCc1cnc2c(c1SCc1c(F)cccc1Cl)c(=O)n(C)c(=O)n2C the IkBa stabilization activation was inconclusive: -1.31% [signal inhibitor].

Source: PubChem BioAssay AID445 (National Center for Advancing Translational Sciences (NCATS), 2006)
Potency means the concentration at half of the fitted maximal effect.
